The BET-seq Pho4 binding data (Le et al. 2018)
Some of the results follow. These are noisy estimates, calculated here from bound and input reads.

Target: T1, Pho4 (S. cerevisiae) (UniProt P07270)
T1 sequence: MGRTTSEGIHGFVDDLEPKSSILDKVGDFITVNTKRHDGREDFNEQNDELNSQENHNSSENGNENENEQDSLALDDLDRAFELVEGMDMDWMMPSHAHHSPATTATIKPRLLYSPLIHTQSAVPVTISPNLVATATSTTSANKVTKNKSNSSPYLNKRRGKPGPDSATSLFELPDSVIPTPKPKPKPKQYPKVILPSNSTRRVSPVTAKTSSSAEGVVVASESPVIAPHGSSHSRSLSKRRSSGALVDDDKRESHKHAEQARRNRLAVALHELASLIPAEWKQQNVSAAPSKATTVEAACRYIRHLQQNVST
Test: relative binding free energy (BET-seq); higher = weaker binding
Conditions: reference: library average

Relative binding free energy, -0.08 kcal/mol:
CGGTACACGTGGTTGA
TTTGGCACGTGAGCTA
ATGAACACGTGGTTAG

Relative binding free energy, 0.01 kcal/mol:
TGGGACACGTGTTCAG
GTTTCCACGTGGTGGC
TCTTGCACGTGTCAGT

Relative binding free energy, 0.24 kcal/mol:
GTATTCACGTGCTGAG
TGCGTCACGTGTGGAC
TCGTTCACGTGCGGGT
GGTTACACGTGTCGGG
CTATTCACGTGTGGGG
TTTTACACGTGTAGAG
CATGACACGTGAAGGT
TCTTTCACGTGTGCTG

Relative binding free energy, 0.37 kcal/mol:
GCTCACACGTGTTGGT

Relative binding free energy, -0.02 kcal/mol:
TAGCGCACGTGTATAT
TCTAACACGTGTGGTT
GAAGTCACGTGGGCGA
GGATGCACGTGTCTTT

Relative binding free energy, -0.21 kcal/mol:
CGGGCCACGTGGGGAA

Relative binding free energy, 0.4 kcal/mol:
TTGCTCACGTGGAGCA

Relative binding free energy, 0.15 kcal/mol:
TTTTTCACGTGGGTTC
CTTGTCACGTGGTACG
TTCATCACGTGGTTTG
AGTGCCACGTGAGTGG

Relative binding free energy, 0.48 kcal/mol:
GGGGTCACGTGAGGAT

Relative binding free energy, 0.23 kcal/mol:
TAGATCACGTGAGTGG
GATATCACGTGTATAT

Relative binding free energy, -0.26 kcal/mol:
GGGGGCACGTGGCCTA

Relative binding free energy, 0.3 kcal/mol:
GGATACACGTGAATGT
TCGTTCACGTGGCTTT

Relative binding free energy, 0.32 kcal/mol:
GTAGTCACGTGGATTA
TGTATCACGTGAATAT
GAGTTCACGTGCTGTG

Relative binding free energy, -0.19 kcal/mol:
CGGCGCACGTGGTTAG

Relative binding free energy, 0.04 kcal/mol:
ATATGCACGTGATTTA
GGTTACACGTGGGTAT
CGATTCACGTGGGGAG
AGTCTCACGTGCGTGT

Relative binding free energy, 0.22 kcal/mol:
AGGTGCACGTGAGTTC
TCGTACACGTGGAAGG
ATGTACACGTGAATGG
ATACTCACGTGTGGTT
AGTGTCACGTGAAGTG

Relative binding free energy, 0.09 kcal/mol:
TGTGGCACGTGATCCG
ATAGTCACGTGGTTGT
GGTCGCACGTGTTGGT
TTGGTCACGTGTCGGA
GTGCACACGTGGAGGG

Relative binding free energy, 0.05 kcal/mol:
TAGAGCACGTGATGGA
AAGGTCACGTGCATGT
ATGAGCACGTGCCGGT
GTTTCCACGTGTTTTA
TAGTACACGTGTTGGT
GACGTCACGTGGGTAT
TATATCACGTGCTGTG

Relative binding free energy, -0.22 kcal/mol:
AGGTGCACGTGTTCTG
ATTGGCACGTGGGGCG

Relative binding free energy, 0.28 kcal/mol:
ATTGTCACGTGAGGCG
ATTTACACGTGATTTA
GTTGTCACGTGAAGCG
ATTGACACGTGAAGTT

Relative binding free energy, -0.09 kcal/mol:
GTGCGCACGTGTTGGT
GTTAGCACGTGTGTGG

Relative binding free energy, 0.45 kcal/mol:
GTTTACACGTGAATTG
CTTGTCACGTGAAATT

Relative binding free energy, -0.12 kcal/mol:
TGGGACACGTGGGCTA
CGCGGCACGTGTGGAT

Relative binding free energy, -0.14 kcal/mol:
AGGAGCACGTGGGATG
CCTCGCACGTGGGGTT
GTTGGCACGTGGCGCG

Relative binding free energy, 0.11 kcal/mol:
GAAAACACGTGTTGGA
TTCGACACGTGTGGTT
TGGTACACGTGTTACA
TAGTACACGTGGGATA
GTCTACACGTGGTTAT
AGTAACACGTGAAGTT
TTAATCACGTGTAGTG

Relative binding free energy, 0.08 kcal/mol:
AGGAACACGTGTAGGA
TAGTCCACGTGTTAGT
GGATGCACGTGTGGAC
AGTTCCACGTGCTGGG
GTGGGCACGTGATTGG
TCCTGCACGTGATGTG

Relative binding free energy, -0.05 kcal/mol:
TATGACACGTGGGATT
AGGGTCACGTGGTGCA
GTTCGCACGTGGAGGA
TTTGTCACGTGGCATT
CAGGCCACGTGTGTTG
GCGGTCACGTGGGCTG
ATACACACGTGTAGGT

Relative binding free energy, 0.12 kcal/mol:
TTTGGCACGTGAAGTT
GGGTCCACGTGTAAAG
CTGGTCACGTGGTATT
GATTACACGTGCTTGT
TGGTGCACGTGATTAT

Relative binding free energy, -0.04 kcal/mol:
GTTGTCACGTGCTCGT
AATTGCACGTGTTGCG
GATAGCACGTGTTGGT

Relative binding free energy, 0.52 kcal/mol:
TTTTTCACGTGTACGC

Relative binding free energy, 0.27 kcal/mol:
CAGTGCACGTGAGGGA
TGGCTCACGTGTCGGA

Relative binding free energy, 0.1 kcal/mol:
GCGTACACGTGGTAGA
ATTTGCACGTGATATC
GTGATCACGTGGGCCG
TAGTGCACGTGAGTAG
TGGTACACGTGATGCG
TTTGTCACGTGCGAAG
GTTTCCACGTGTTTAG
CGAAGCACGTGTGGAT
GTTTACACGTGTTGTC

Relative binding free energy, 0.06 kcal/mol:
GGGAACACGTGCGGGA
AGTGACACGTGATGCG
ATGTTCACGTGGTATA
AATTGCACGTGATTTG
GTTGCCACGTGGTGTT
TCAGGCACGTGTGATG

Relative binding free energy, -0.24 kcal/mol:
GGACGCACGTGGGTTG

Relative binding free energy, 0.03 kcal/mol:
ATGTGCACGTGCTTGC
TTGTGCACGTGTAGAG
GTCGCCACGTGTTTGT
GGCAGCACGTGGAGAG

Relative binding free energy, 0.02 kcal/mol:
GTATACACGTGTGATG
GAATACACGTGGGTGA
GGGTGCACGTGCAGTT
TTGGGCACGTGGACGA
GTTACCACGTGGTGGC
GGGTACACGTGCGGCT

Relative binding free energy, 0.18 kcal/mol:
AAGGTCACGTGACAGG
TATGTCACGTGTTCCT

Relative binding free energy, -0.07 kcal/mol:
TTGTGCACGTGCTAGG
ACGGGCACGTGGTTAA
TGGAGCACGTGGTTGA
CTGGGCACGTGTAGTT
TTATCCACGTGTTTGA
GTGGCCACGTGGATGA

Relative binding free energy, 0.26 kcal/mol:
TCAATCACGTGTGGGA
TAGGTCACGTGAACTT
TTGTGCACGTGAAAAA
TTGATCACGTGAGGTT

Relative binding free energy, 0.07 kcal/mol:
ATTTACACGTGTAGTA
GGTATCACGTGGGGGT
GTAGTCACGTGGATGC
TGAAGCACGTGCGGAA
AGTCGCACGTGTGTGA
AGTATCACGTGATGAG
AAGGTCACGTGGTGGT

Relative binding free energy, 0.35 kcal/mol:
GAACTCACGTGTGTTT

Relative binding free energy, -0.1 kcal/mol:
AAAGGCACGTGTGTTA
TTGTACACGTGGCTGA
ATTGACACGTGCGTTG
CTGGGCACGTGGTCGA

Relative binding free energy, 0.21 kcal/mol:
CGAGGCACGTGAGGTA

Relative binding free energy, 0.13 kcal/mol:
GAGGTCACGTGACGGT
TGGGACACGTGTGATT
CAGGTCACGTGGTAGA
TTAATCACGTGGTAGC
TTAAACACGTGATTTT
GGCATCACGTGTAGGG

Relative binding free energy, 0.29 kcal/mol:
CTGGTCACGTGGAAAT
AGGTTCACGTGGCTAT
GGGTTCACGTGACTGT

Relative binding free energy, 0.25 kcal/mol:
GTCAGCACGTGAGGGC
TGTTTCACGTGTCAAG
GCATTCACGTGTGTGG
TTTGACACGTGAAGTC

Relative binding free energy, -0.11 kcal/mol:
AGTGTCACGTGGGTGC
AGTCACACGTGGTGTG

Relative binding free energy, 0.14 kcal/mol:
AGTATCACGTGGAGTA
TAAGTCACGTGTGTAC
TTATTCACGTGGGATC
TGAGGCACGTGAGGTG
CATTTCACGTGGGGTG

Relative binding free energy, 0.34 kcal/mol:
AGGGTCACGTGAGGAA
AATTTCACGTGTGGAC

Relative binding free energy, 0.39 kcal/mol:
CCGTGCACGTGAGAGG
GGGGTCACGTGATTGC

Relative binding free energy, 0.38 kcal/mol:
AGAGTCACGTGGAAAT

Relative binding free energy, 0.2 kcal/mol:
AAGTTCACGTGCGAGG
CTCTGCACGTGAGGGT
TGATTCACGTGGAGTG
TATCACACGTGATGTT
GAGTTCACGTGCTTTG
GGAGTCACGTGTTTGA

Relative binding free energy, -0.17 kcal/mol:
AGATGCACGTGGTACG

Relative binding free energy, -0.2 kcal/mol:
GTTGGCACGTGCGGGT
CATTGCACGTGGGTGA

Relative binding free energy, 0.44 kcal/mol:
GGAATCACGTGAAGAG

Relative binding free energy, -0.16 kcal/mol:
GTGAGCACGTGTGGCA
TAGGGCACGTGGTAGT
GCTAACACGTGGGGTA

Relative binding free energy, 0.16 kcal/mol:
GTGTTCACGTGGGCGA

Relative binding free energy, 0.41 kcal/mol:
GAGTTCACGTGTCTGG
GTGAACACGTGAATGG
TTTTTCACGTGTGTTC

Relative binding free energy, -0.25 kcal/mol:
CACGGCACGTGGGGGA

Relative binding free energy, 0 kcal/mol:
GGCGGCACGTGGTATT
TGTAGCACGTGTGAGA
GAGTGCACGTGGTTTG
CGTTGCACGTGTTTCG
AAATCCACGTGGGGTT

Relative binding free energy, -0.01 kcal/mol:
TATAACACGTGCATGG
TGTCACACGTGTGATT
TTTGACACGTGCGGCA
TTGAACACGTGTAGGC
ATGGCCACGTGTGTGG

Relative binding free energy, -0.13 kcal/mol:
AGGTCCACGTGGGCGT
AACAGCACGTGGTAGG

Relative binding free energy, -0.29 kcal/mol:
AGAAGCACGTGGGGGG
CTTAGCACGTGGGGGC

Relative binding free energy, -0.18 kcal/mol:
AGAGGCACGTGCTTAG

Relative binding free energy, -0.27 kcal/mol:
TTGGCCACGTGGCGGT

Relative binding free energy, 0.19 kcal/mol:
TATTACACGTGGTAAG
CGTGACACGTGTTATT
GAGGTCACGTGTTGCT

Relative binding free energy, -0.06 kcal/mol:
ATTAGCACGTGTTAGC
TATTACACGTGTTGTC
CAAGTCACGTGGGCGG
TACGTCACGTGGGGTG
GAGCGCACGTGTTGGG
AAAGGCACGTGTTGGG
TGTGCCACGTGAGCGT

Relative binding free energy, -0.31 kcal/mol:
CGCAGCACGTGGGAGG

Relative binding free energy, 0.17 kcal/mol:
GTATACACGTGGATAA
TTACTCACGTGTGTCT

Relative binding free energy, -0.15 kcal/mol:
GGTAGCACGTGGGGGG
TGTGGCACGTGGGCTT
TAGGGCACGTGTTGCG
GCTAGCACGTGGTATG
ATGGGCACGTGTCGAG
